Data on 57 molecules can be found in article PMC4336329 (PLoS ONE, 2015).

Structures are written as SMILES. Screen size: about 310,000 compounds; about 14,000 (4.5%) showed an effect of 50% or more. Effects have a minus sign here. This is one part of the list.
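Further: peak tail current of the secondary pulse compared with the same well before compound.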

Sequence of human ether-à-go-go-related gene (hERG) potassium channel (Q12809 whole entry, looked up): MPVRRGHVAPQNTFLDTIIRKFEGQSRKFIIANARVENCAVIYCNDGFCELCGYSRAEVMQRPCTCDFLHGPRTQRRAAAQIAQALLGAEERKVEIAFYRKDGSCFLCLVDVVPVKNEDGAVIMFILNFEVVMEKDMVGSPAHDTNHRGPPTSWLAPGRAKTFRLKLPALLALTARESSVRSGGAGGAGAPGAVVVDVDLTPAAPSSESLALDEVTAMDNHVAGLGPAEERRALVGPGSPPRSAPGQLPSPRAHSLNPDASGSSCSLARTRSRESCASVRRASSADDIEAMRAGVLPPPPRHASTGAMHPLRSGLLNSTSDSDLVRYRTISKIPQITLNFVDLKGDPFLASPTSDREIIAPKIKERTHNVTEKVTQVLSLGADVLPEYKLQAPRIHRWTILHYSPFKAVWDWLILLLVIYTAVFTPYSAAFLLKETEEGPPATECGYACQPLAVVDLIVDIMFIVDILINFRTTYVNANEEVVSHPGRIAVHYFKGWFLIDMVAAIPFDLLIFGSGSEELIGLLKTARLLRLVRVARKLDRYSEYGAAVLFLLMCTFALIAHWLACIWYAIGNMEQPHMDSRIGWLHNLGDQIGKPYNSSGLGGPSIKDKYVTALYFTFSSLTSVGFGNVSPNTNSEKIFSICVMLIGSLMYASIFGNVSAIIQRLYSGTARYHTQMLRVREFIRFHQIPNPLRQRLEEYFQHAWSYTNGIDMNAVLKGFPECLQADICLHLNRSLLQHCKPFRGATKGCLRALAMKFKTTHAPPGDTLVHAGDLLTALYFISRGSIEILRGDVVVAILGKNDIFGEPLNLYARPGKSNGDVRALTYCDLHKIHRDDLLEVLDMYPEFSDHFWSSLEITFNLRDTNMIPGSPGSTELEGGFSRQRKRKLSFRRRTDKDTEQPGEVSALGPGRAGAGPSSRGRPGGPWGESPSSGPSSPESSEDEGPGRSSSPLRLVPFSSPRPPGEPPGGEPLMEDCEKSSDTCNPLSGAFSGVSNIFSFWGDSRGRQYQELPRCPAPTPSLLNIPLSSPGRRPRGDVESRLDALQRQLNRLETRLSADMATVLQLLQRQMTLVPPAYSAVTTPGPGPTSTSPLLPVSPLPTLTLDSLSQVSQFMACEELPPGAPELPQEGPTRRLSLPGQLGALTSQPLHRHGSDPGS

This experiment has as its target human ether-à-go-go-related gene (hERG) potassium channel (human, UniProt Q12809). Description: primary screen, population patch clamp on CHO cells stably expressing hERG.
In the case of `Cc1cc(NC(=O)CCC(=O)N(c2cccnc2)C(C(=O)NC2CCCC2)c2ccccc2)no1` (stereo not drawn), the “hERG current change (%, negative = inhibition) at 10uM” value is on record as 14.6%.
As for `COC(=O)CCCC(=O)Nc1c(F)c(F)c(F)c(F)c1F`, the “hERG current change (%, negative = inhibition) at 10uM” value is -1.21%.
In the case of `Cc1ccc(S(=O)(=O)N2CCN(C(=O)C(F)(F)F)C2c2ccc(N(C)C)cc2)cc1` (stereo not drawn) it was 12.6%.
In the case of `CCNC(=O)C1CC(=O)N(c2ccc(Br)cc2)C1` (stereo not drawn) it was 2.64%; in that of `CS(=O)(=O)Nc1ccc(C2=NN(C(=O)CCCC(=O)O)C(c3cccs3)C2)cc1` (stereo not drawn), 7.87%; in that of `O=C(NC1(C(F)(F)F)N=C(c2ccccc2)NC1=O)c1ccccc1` (stereo not drawn), 9.08%.
As to `O=C(CNC(=O)c1ccccc1Cl)N/N=C/C=C/c1ccccc1`, the “hERG current change (%, negative = inhibition) at 10uM” value was found to be 7.26%.
With `CC(C)CC(NC(=O)c1ccccc1NC(=O)c1ccccc1)C(=O)O` (stereo not drawn), the “hERG current change (%, negative = inhibition) at 10uM” value is reported as 8.23%.
Consider `COc1ccc(NC(=O)C(OC)c2ccccc2)cc1Cl` (stereo not drawn), for which the “hERG current change (%, negative = inhibition) at 10uM” value came out at 15.4%.
The same measure for `Oc1c(Br)cc(Br)cc1CNc1cnc2ccccc2c1`: 13.1%.
Turning to `COc1cc(/C=N/Nc2ccccc2)ccc1OC(=O)c1cccs1`, the “hERG current change (%, negative = inhibition) at 10uM” value was 1.68%.
In the case of `CCc1sc(NC(=O)COC)nc1-c1ccccc1`, the “hERG current change (%, negative = inhibition) at 10uM” value was -8.7%.
The same measure for `COc1ccc(-c2nnn(Cc3nc(N)nc(N4CCCCC4)n3)n2)cc1`: -9.06%; for `COc1ccc(-n2nc(C(=O)NCC(=O)NCc3ccccc3OC)c3ccccc3c2=O)cc1`: -69.5%; for `O=C(CCn1c(=O)sc2ccccc21)NCCC1=CCCCC1`: 8.97%.
Take `O=C(NCCCN1CCCC1=O)c1ccc2c(=O)n(-c3ccc(F)cc3)c(=S)[nH]c2c1`: the “hERG current change (%, negative = inhibition) at 10uM” value was 11.5%.
In the case of `CC(C)C[C@H](NC(=O)N1CCn2c1nc1ccccc12)C(=O)N1CCCCC1` it was -3.14%; in that of `CCOC(=O)c1c(C)[nH]c(C)c1C(=O)CSc1nnc(-c2ccco2)n1Cc1ccccc1`, -19.3%; in that of `COc1ccc(CCNC(=O)C23CN(Cc4ccccc4)CC2C(c2ccc([N+](=O)[O-])cc2)=NO3)cc1` (stereo not drawn), -74.8%.
In the case of `Cn1nc(C(C)(C)C)c(NC(=O)c2sccc2Cl)c1C(C)(C)C` it was -5.18%; in that of `CC(=O)NNC(=S)Nc1cccc(F)c1`, 6.95%; in that of `Cc1ccc(N2CCN(CCc3nc4cc(NC(=O)c5ccco5)ccc4n3C)CC2)cc1`, -70.7%.
In the case of `CNc1ncc(C(=O)c2ccc(Cl)c(Cl)c2)s1` it was -0.0564%; in that of `COc1cc(NC(=O)COc2ccc(Cl)cc2)ccc1NC(=O)C(C)C`, 0.827%; in that of `CCc1nnc(NC(=O)CSc2nnc3ncccn23)s1`, 19.2%.
For `COc1ccccc1-n1c(=O)[nH]c2c(C(N)=O)nc(CC(C)C)nc21`, the “hERG current change (%, negative = inhibition) at 10uM” value was 5.01%.
Turning to `Cl.O=C(CCN1CCCCCC1)Nc1ccccc1F`, the “hERG current change (%, negative = inhibition) at 10uM” value is on record as -4.4%.
Consider `COc1ccc(-c2csc(NC(=O)CSc3nnnn3C)n2)cc1OC`, for which the “hERG current change (%, negative = inhibition) at 10uM” value stood at 8%.
In the case of `CN(C)c1ccc(NC(=O)Cn2ncn3c(cc4ccccc43)c2=O)cc1` it was 9.95%; in that of `CCc1ccc(-c2nc(CS(=O)CC(=O)NC3CC3)c(C)o2)cc1` (stereo not drawn), 2.09%.
Consider `CCN1CCc2c(sc(NC(=S)NC(=O)c3ccccc3)c2C#N)C1`, for which the “hERG current change (%, negative = inhibition) at 10uM” value is given as -6.15%.
In the case of `Cn1nc(C(F)(F)F)c2cc(C(=O)O)sc21`, the “hERG current change (%, negative = inhibition) at 10uM” value is 14.4%.
Consider `COc1ccccc1C(=O)O/N=C(\N)c1ccccc1Cl`, for which the “hERG current change (%, negative = inhibition) at 10uM” value is listed as -4.6%.
On to `O=C(NCC(c1ccco1)N1CCN(c2ccccc2)CC1)C(=O)NC1CCCCC1` (stereo not drawn), for which the “hERG current change (%, negative = inhibition) at 10uM” value came out at 4.91%.
The same measure for `COc1ccccc1CNC(=O)C1CC2Cn3c(nc4cc(C)c(C)cc43)C2N1C` (stereo not drawn): -27%.
On to `Cc1ccccc1/C=N\NC(=O)c1ccccc1-n1cccc1`, for which the “hERG current change (%, negative = inhibition) at 10uM” value is on record as 18.5%.
In the case of `Cl.Fc1ccccc1Nc1nc(Cl)nc(Cl)n1` it was 7.69%; in that of `CCC(=O)Oc1ccc(-c2nc(-c3cccnc3)no2)cc1`, 12.7%.
The same measure for `O=C1CC(C(=O)N2CCN(c3ccccc3O)CC2)CN1Cc1ccccc1` (stereo not drawn): -39.8%; for `C=CCNc1cnn(-c2ccc(C)cc2)c(=O)c1Cl`: -12.7%.
In the case of `COc1ccc(C(=O)NCC2OCCc3ccccc32)cc1` (stereo not drawn) it was -4.5%.
Turning to `CCSc1nc2sc3c(c2c(=O)[nH]1)CC(C)(C)OC3`, the “hERG current change (%, negative = inhibition) at 10uM” value stood at 19.1%.
As to `Cc1cc(C)n(C(=O)c2c([N+](=O)[O-])c(C)nn2C)n1`, the “hERG current change (%, negative = inhibition) at 10uM” value is given as 19.3%.
The same measure for `COc1ccc(NC(=O)c2ccc(Cl)nc2)cc1S(=O)(=O)N1CCOCC1`: -10.5%; for `COC(=O)C1=C(N)Oc2cc(C)n(C)c(=O)c2C1c1ccc(Cl)c(Cl)c1` (stereo not drawn): 20.3%.
For `O=C(NCc1ccco1)c1cccn2c(=O)c3sccc3nc12`, the “hERG current change (%, negative = inhibition) at 10uM” value is recorded as -68.4%.
In the case of `O=CN1CCN(c2ncnc3c2nnn3Cc2c(F)cccc2Cl)CC1` it was 6.42%.
For `O=C(Nc1nccs1)c1ccccc1[N+](=O)[O-]`, the “hERG current change (%, negative = inhibition) at 10uM” value is recorded as -3.75%.
Consider `COc1ccc(NC2CC(=O)N(c3cccc([N+](=O)[O-])c3)C2=O)cc1` (stereo not drawn), for which the “hERG current change (%, negative = inhibition) at 10uM” value was -10.6%.
Regarding `O=C(N/N=C/c1cccc([N+](=O)[O-])c1O)c1cccs1`, the “hERG current change (%, negative = inhibition) at 10uM” value was -14.7%.
In the case of `CCOc1ccccc1-n1nnnc1SC(C)C(=O)OC` (stereo not drawn) it was 3.98%.
In the case of `COc1ccc2oc(=O)cc(CN3CCOCC3)c2c1` it was 18.3%.
`CN(C)C(CNC(=O)c1cccc(C(F)(F)F)c1)c1ccco1` (stereo not drawn): the “hERG current change (%, negative = inhibition) at 10uM” value is recorded as -11.8%.
As for `O=c1[nH]c(=O)n(Cc2ccccc2Cl)c(O)c1/C=C1/C=CC=N1`, the “hERG current change (%, negative = inhibition) at 10uM” value came to 37.3%.
With `Cc1ccc(C2(c3ccc(C)cc3)CC2C(=O)NCc2cccnc2)cc1` (stereo not drawn), the “hERG current change (%, negative = inhibition) at 10uM” value is given as 8.65%.
In the case of `CCOC(=O)c1ccc(NC(=O)c2nc[nH]c2C(=O)N(C)Cc2ccccc2)cc1` it was -11.1%; in that of `NS(=O)(=O)c1ccc(CCNC(=O)C2CCCN(S(=O)(=O)c3cccnc3)C2)cc1` (stereo not drawn), -4.22%.
